According to the supplement of paper PMC11417369:
The list shows a part of the results.

System: PF3D7_0420300 AP2 domain 1 (GST-tagged)
Assay: gcPBM binding intensity (ln(normalized median fluorescence intensity)); higher = stronger DNA binding
In short: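 For binding intensity, the highest Masliner-normalised natural-log median intensity across replicate spots of either probe orientation was taken. Protein bound to the array was stained with Alexa488 anti-GST antibody and scanned at 488 nm. The protein, GST-tagged P. falciparum DNA-binding domains from E. coli at about 25 μg on average, had been applied for 1 h to an Agilent 4 × 180k array of primer-extended double-stranded 36-bp intergenic genomic probes and negative controls.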

Sequence	gcPBM binding intensity (ln)
AAAAAATATTTATGTTCACACATTTTATATATGATA [CACACA_site4821]	9.2
TTTTTTTTTTGATGAGCACACATGTTTTTTCTTAGA [CACACA_site3171]	9.17
AAATATTTTTAAAGAAGTACTTTTTAAAAATAATCT [XGTACX_site4897]	9.01
AAGATACACCTTTTTAGTACTTACATTTTTTTTATT [XGTACX_site1373]	9.55
TCTTTGTTTTTTTTTTTTAAACAAAATCATCAAAGG [XGTACX_negctrl_site192]	8.69
GCGTATACTTGTAACGGTACACAGGAAATTATAGAA [XGTACX_site507]	9.19
AATAAATATATATACACACCCATATATATATATATA [CACACA_site2595]	9.43
TACACTTTTTTTTGTACACACTAAAAAGATTAACAA [CACACA_site6037]	9.07
TTAATGAAATATTATACACACAAAAAAATAATTTTA [CACACA_site4231]	9.45
TAATGTTGTTTCTGAGGTACACAATTTTTTTTATTT [XGTACX_site8035]	9.41
TATATATATGGACACACACACACCAAAGCGTAGCGC [CACACA_site4209]	9.92
AGATAAAATATATATGCACACACATATATATTTCAT [CACACA_site9183]	9.53
ATAATTATTTAATATATATATATTATTTCGAATGTT [GTGCAC_negctrl_site688]	9.29
TAATTATTTAAAAAGAGTACATTTTTTTTTTTTTTT [XGTACX_site1060]	8.9
ATTCTATATAAATATACACACATATATAAAATACAT [CACACA_site2293]	9.54
TTAATAATTAATATATGTACTGATAAATAACATATA [XGTACX_site3966]	9.07
ACATATCTATCGTTTTTAATTGTATATTATTATAAC [TGCATGCA_negctrl_site144]	9.37
TGTTTGTAATTATGTATGCACTTTTTTGTATGTGTG [GTGCAC_site9668]	9.58
TCTTGTATATGTTAAAGTACACAACAATATATATAT [XGTACX_site6814]	9.21
TCCCACTGTTATATTGAAAAAAAAAAAAAAAAAAAA [TGCATGCA_negctrl_site288]	8.61
TAATGAGCGCTTGTAGTGCATTATATTCAAAAATAT	8.88
ATATTCTTGTTTAATACACACTGTAGTATTATATAT [CACACA_site4400]	9.62

Sequence	gcPBM binding intensity (ln)
AGAAAAAAACAACATGCACACGCACCCACAAAAAAA [CACACA_site7908]	9.71
AATTATATGCTTAATACGCACACGGGAAAAAAAAAA [CACACA_site1376]	9.26
TAAATAAAAAAAAATCGTACATATATTTTATATATG [XGTACX_site3293]	8.92
TTTTCAAAAATATACACACACATAAATATCTGTATA [CACACA_site4586]	9.61
TCGTAATAATAGTTGAGTACGCACTAATATGTCAAT [XGTACX_site643]	9.38
TATTTACATTTTAGTAGTACATATATGTATATATAT [XGTACX_site6839]	9.14
GAACATTTCACACAAAAAAAAAAAAATATATATATA [TGCATGCA_negctrl_site518]	9.24
ACATGATGTCATAAATGTACGCACACATACATAAAC [XGTACX_site1198]	9.44
TCTTTTTAAATATATACACACCGTGTCTACAGATAC [CACACA_site5784]	9.19
TACTAATATAATAAAAGTACTTAAATAAATATATGT [XGTACX_site2220]	9.3
AAAAAAAAAAAACACACACACACAAATATATAAAAA [CACACA_site1171]	10.1
ATACCTTCTTTTATGTTTAATTAATATACTTTTTAT [CACACA_negctrl_site1557]	9.51
GTATAAAAGTTATATACACACAACAGAATTACATAT [CACACA_site6212]	9.8
TTTGAAAAAAATTAATGTACATTTGAAATGACATAT [XGTACX_site3902]	8.93
AATACATACATACATACACACATATAAATATATTAT [CACACA_site7650]	9.85
TCATATATGGGTAGTATACACACTGTATATTTAGGA [CACACA_site2844]	9.31
TTTGCCCAAAAAGGTACACACCACAATGTACATAAA [CACACA_site4599]	9.29
TTTTATTTAAATACACGTACATAATGTATATATATA [XGTACX_site7160]	9.14
TACTAAGAATTAATATAACAAAATAAAAAAAAAAAA [XGTACX_negctrl_site346]	9.19
ATACAGATATATAATACACACATAAATGTAACATTT [CACACA_site5864]	9.77
ATGTATATATATATATGTACTAATTAGTAGTTTACG [XGTACX_site6272]	9.35
TGTATGTATAAAAACGCATGTATGTATTTTACAATA [TGCATGCA_site767]	9.14
